# Growth of fresh clinical P. falciparum isolates by hypoxanthine uptake over 42 h; for most isolates 1.6-1,647 nM mefloquine, 0.044-87 nM artesunate, 10-10,256 nM chloroquine, 2.4-236 nM lumefantrine. EC50, lower = more sensitive; slope from the same fit, higher = steeper. No active / inactive call. Fits with a coefficient of variation above 100% are not listed here; 15-28% of fits exceed 15%. Isolates are numbered anew.
# Tests used:
# [1] = compound: T1, CCCCN(CCCC)CC(O)c1cc(Cl)cc2c1-c1ccc(Cl)cc1/C2=C/c1ccc(Cl)cc1 [lumefantrine]; assay: slope of the dose-response curve (dimensionless); higher = steeper concentration-effect curve
# Experimental: (§1)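 Hypoxanthine uptake by fresh isolates, duplicate serial dilutions, 24 h of drug plus 18 h after the label; sigmoid fit per isolate.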
# [2] = compound: T2, OC(c1cc(C(F)(F)F)nc2c(C(F)(F)F)cccc12)C1CCCCN1 [mefloquine]; assay: as above
# Experimental: as §1
# [3] = compound: T3, CCN(CC)CCCC(C)Nc1ccnc2cc(Cl)ccc12 [chloroquine]; assay: as above
# Experimental: as §1
# [4] = compound: T4, C[C@H]1[C@H](OC(=O)CCC(=O)O)O[C@@H]2O[C@@]3(C)CC[C@H]4[C@H](C)CC[C@@H]1[C@@]24OO3 [artesunate]; assay: as above
# Experimental: as §1
# [5] = compound: T1, lumefantrine
# Experimental: as §1
# [6] = compound: T2, mefloquine
# Experimental: as §1
# [7] = compound: T3, chloroquine
# Experimental: as §1
# [8] = compound: T4, artesunate
# Experimental: as §1
test system,measurement,setting,value
"Plasmodium falciparum isolate 235 (pfmdr1 allele: 86N, 1042N, pfmdr1 copies: 1)",slope,[1],1.89
same,slope,[2],3.04
same,slope,[3],5.09
same,slope,[4],6.13
same,EC50 of parasite growth,[5],0.0156 µg/mL
same,EC50 of parasite growth,[6],0.0269 µg/mL
same,EC50 of parasite growth,[7],0.0989 µg/mL
same,EC50 of parasite growth,[8],0.000633 µg/mL
"Plasmodium falciparum isolate 375 (pfmdr1 allele: 86N, 1042N, pfmdr1 copies: 2)",slope,[1],1.74
same,slope,[2],1.97
same,slope,[3],3.74
same,slope,[4],6.38
same,EC50 of parasite growth,[5],0.0355 µg/mL
same,EC50 of parasite growth,[6],0.0565 µg/mL
same,EC50 of parasite growth,[7],0.0909 µg/mL
same,EC50 of parasite growth,[8],0.00058 µg/mL
"Plasmodium falciparum isolate 85 (pfmdr1 allele: 86N, 1042N, pfmdr1 copies: 1)",slope,[1],1.89
same,slope,[2],1.78
same,slope,[3],2.69
same,slope,[4],2.33
same,EC50 of parasite growth,[5],0.00366 µg/mL
same,EC50 of parasite growth,[6],0.00516 µg/mL
same,EC50 of parasite growth,[7],0.349 µg/mL
same,EC50 of parasite growth,[8],0.000486 µg/mL
"Plasmodium falciparum isolate 54 (pfmdr1 allele: 86N, 1042N, pfmdr1 copies: 1)",slope,[1],1.36
same,slope,[2],1.1
same,slope,[3],3.96
same,slope,[4],3.64
same,EC50 of parasite growth,[5],0.0116 µg/mL
same,EC50 of parasite growth,[6],0.0381 µg/mL
same,EC50 of parasite growth,[7],0.139 µg/mL
same,EC50 of parasite growth,[8],0.00366 µg/mL
"Plasmodium falciparum isolate 434 (pfmdr1 allele: 86N, 1042N, pfmdr1 copies: 3)",slope,[1],1.8
same,slope,[2],3.68
same,slope,[3],2.19
same,slope,[4],5.84
same,EC50 of parasite growth,[5],0.048 µg/mL
same,EC50 of parasite growth,[6],0.101 µg/mL
same,EC50 of parasite growth,[7],0.0538 µg/mL
same,EC50 of parasite growth,[8],0.00221 µg/mL
"Plasmodium falciparum isolate 98 (pfmdr1 allele: 86N, 1042N, pfmdr1 copies: 1)",slope,[1],2.21
same,slope,[2],1.89
same,slope,[3],4.61
same,slope,[4],5.97
same,EC50 of parasite growth,[5],0.0129 µg/mL
same,EC50 of parasite growth,[6],0.00691 µg/mL
same,EC50 of parasite growth,[7],0.0901 µg/mL
same,EC50 of parasite growth,[8],0.000932 µg/mL
"Plasmodium falciparum isolate 150 (pfmdr1 allele: 86N, 1042N, pfmdr1 copies: 1)",slope,[1],3.01
same,slope,[2],1.79
same,slope,[3],3.69
same,slope,[4],4.43
same,EC50 of parasite growth,[5],0.00957 µg/mL
same,EC50 of parasite growth,[6],0.00709 µg/mL
same,EC50 of parasite growth,[7],0.0687 µg/mL
same,EC50 of parasite growth,[8],0.00052 µg/mL
"Plasmodium falciparum isolate 232 (pfmdr1 allele: 86N, 1042N, pfmdr1 copies: 2)",slope,[1],2.44
same,slope,[2],2.37
same,slope,[3],2.33
same,slope,[4],4.55
same,EC50 of parasite growth,[5],0.0268 µg/mL
same,EC50 of parasite growth,[6],0.0373 µg/mL
same,EC50 of parasite growth,[7],0.0528 µg/mL
same,EC50 of parasite growth,[8],0.00105 µg/mL
"Plasmodium falciparum isolate 266 (pfmdr1 allele: 86N, 1042N, pfmdr1 copies: 1)",slope,[1],2.37
same,slope,[2],2.56
same,slope,[3],6.34
same,slope,[4],7.85
same,EC50 of parasite growth,[5],0.0111 µg/mL
same,EC50 of parasite growth,[6],0.0184 µg/mL
same,EC50 of parasite growth,[7],0.0606 µg/mL
same,EC50 of parasite growth,[8],0.000459 µg/mL
"Plasmodium falciparum isolate 380 (pfmdr1 allele: 86N, 1042N, pfmdr1 copies: 1)",slope,[1],2.08
same,slope,[2],2.02
same,slope,[3],5.78
same,slope,[4],5.24
same,EC50 of parasite growth,[5],0.028 µg/mL
same,EC50 of parasite growth,[6],0.0241 µg/mL
same,EC50 of parasite growth,[7],0.216 µg/mL
same,EC50 of parasite growth,[8],0.000674 µg/mL
"Plasmodium falciparum isolate 221 (pfmdr1 allele: 86N, 1042N, pfmdr1 copies: 1)",slope,[1],9.98
same,slope,[2],3.39
same,slope,[3],3.76
same,slope,[4],8.4
same,EC50 of parasite growth,[5],0.129 µg/mL
same,EC50 of parasite growth,[6],0.0542 µg/mL
same,EC50 of parasite growth,[7],0.125 µg/mL
same,EC50 of parasite growth,[8],0.00403 µg/mL
"Plasmodium falciparum isolate 155 (pfmdr1 allele: 86N, 1042N, pfmdr1 copies: 1)",slope,[1],2.02
same,slope,[2],2.34
same,slope,[3],3.21
same,slope,[4],4.34
same,EC50 of parasite growth,[5],0.0134 µg/mL
same,EC50 of parasite growth,[6],0.0176 µg/mL
same,EC50 of parasite growth,[7],0.134 µg/mL
same,EC50 of parasite growth,[8],0.00047 µg/mL
"Plasmodium falciparum isolate 269 (pfmdr1 allele: 86N, 1042N, pfmdr1 copies: 1)",slope,[1],4.08
same,slope,[2],1.04
same,slope,[3],3.03
same,slope,[4],1.32
same,EC50 of parasite growth,[5],0.0659 µg/mL
same,EC50 of parasite growth,[6],0.0292 µg/mL
same,EC50 of parasite growth,[7],0.188 µg/mL
same,EC50 of parasite growth,[8],0.00253 µg/mL
"Plasmodium falciparum isolate 416 (pfmdr1 allele: 86N, 1042N, pfmdr1 copies: 2)",slope,[1],3.59
same,slope,[2],2.87
same,slope,[3],2.31
same,slope,[4],6.18
same,EC50 of parasite growth,[5],0.0736 µg/mL
same,EC50 of parasite growth,[6],0.052 µg/mL
same,EC50 of parasite growth,[7],0.0389 µg/mL
same,EC50 of parasite growth,[8],0.000695 µg/mL
"Plasmodium falciparum isolate 365 (pfmdr1 allele: 86N, 1042N, pfmdr1 copies: 2)",slope,[1],2.64
same,slope,[2],2.86
same,slope,[3],5.75
same,slope,[4],4.97
same,EC50 of parasite growth,[5],0.0267 µg/mL
same,EC50 of parasite growth,[6],0.0334 µg/mL
same,EC50 of parasite growth,[7],0.0897 µg/mL
same,EC50 of parasite growth,[8],0.000321 µg/mL
"Plasmodium falciparum isolate 367 (pfmdr1 allele: 86N, 1042N, pfmdr1 copies: 1)",slope,[1],0.997
same,slope,[2],3.66
same,slope,[3],4.93
same,slope,[4],5.55
same,EC50 of parasite growth,[5],0.0165 µg/mL
same,EC50 of parasite growth,[6],0.0291 µg/mL
same,EC50 of parasite growth,[7],0.122 µg/mL
same,EC50 of parasite growth,[8],0.00218 µg/mL
"Plasmodium falciparum isolate 274 (pfmdr1 allele: 86N, 1042N, pfmdr1 copies: 1)",slope,[1],0.667
same,slope,[2],1.68
same,slope,[3],2.59
same,slope,[4],3.18
same,EC50 of parasite growth,[5],0.00285 µg/mL
same,EC50 of parasite growth,[6],0.00496 µg/mL
same,EC50 of parasite growth,[7],0.0806 µg/mL
same,EC50 of parasite growth,[8],0.000387 µg/mL
"Plasmodium falciparum isolate 75 (pfmdr1 allele: 86N, 1042N, pfmdr1 copies: 1)",slope,[1],2.62
same,slope,[2],2.51
same,slope,[3],9.64
same,slope,[4],6.31
same,EC50 of parasite growth,[5],0.0283 µg/mL
same,EC50 of parasite growth,[6],0.0361 µg/mL
same,EC50 of parasite growth,[7],0.175 µg/mL
same,EC50 of parasite growth,[8],0.00132 µg/mL
"Plasmodium falciparum isolate 157 (pfmdr1 allele: 86N, 1042N, pfmdr1 copies: 1)",slope,[1],1.95
same,slope,[2],1.99
same,slope,[3],3.37
same,slope,[4],4.5
same,EC50 of parasite growth,[5],0.0182 µg/mL
same,EC50 of parasite growth,[6],0.0328 µg/mL
same,EC50 of parasite growth,[7],0.0706 µg/mL
same,EC50 of parasite growth,[8],0.00106 µg/mL
"Plasmodium falciparum isolate 392 (pfmdr1 allele: 86N, 1042N, pfmdr1 copies: 1)",slope,[1],1.3
same,slope,[2],1.53
same,slope,[3],5.18
same,slope,[4],3.52
same,EC50 of parasite growth,[5],0.00449 µg/mL
same,EC50 of parasite growth,[6],0.0044 µg/mL
same,EC50 of parasite growth,[7],0.0728 µg/mL
same,EC50 of parasite growth,[8],0.000259 µg/mL
"Plasmodium falciparum isolate 197 (pfmdr1 allele: 86N, 1042N, pfmdr1 copies: 1)",slope,[1],2.46
same,slope,[2],3.65
same,slope,[3],6.06
same,slope,[4],5.37
same,EC50 of parasite growth,[5],0.0147 µg/mL
same,EC50 of parasite growth,[6],0.0271 µg/mL
same,EC50 of parasite growth,[7],0.181 µg/mL
same,EC50 of parasite growth,[8],0.000539 µg/mL

# Reference: the supplement of paper PMC3722116
